# The list shows a part of the results.
# B1: Gal 8 (Mus musculus), Q9JL15 (protein)
# chain: MGGSHHHHHHGMASMLSLNNLQNIIYNPIIPYVGTITEQLKPGSLIVIRGHVPKDSERFQVDFQLGNSLKPRADVAFHFNPRFKRSSCIVCNTLTQEKWGWEEITYDMPFRKEKSFEIVFMVLKNKFQVAVNGRHVLLYAHRISPEQIDTVGIYGKVNIHSIGFRFSSASALPHTLGDLQSMETSALGLTQINRENIQKPGKLQLSLPFEARLNASMGPGRTVVIKGEVNTNARSFNVDLVAGKTRDIALHLNPRLNVKAFVRNSFLQDAWGEEERNITCFPFSSGMYFEMIIYCDVREFKVAINGVHSLEYKHRFKDLSSIDTLSVDGDIRLLDVRSW
# Legend:
# Assay in all cases: glycan array binding signal (z-score within array); higher = stronger binding
# Settings in all cases: glycan notation: IUPAC condensed, linker removed
# [1] = target: Fuc(a1-3)[Gal3S(b1-4)]GlcNAc
# How it was run: (§1)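 Glycan array data were curated from 3228 arrays in the Consortium for Functional Glycomics database and kept only where the protein sequence was available. Glycan names were converted to IUPAC-condensed notation, and columns mapping to the same glycan were averaged. The binding signal is a within-array Z-score, averaged across arrays of the same protein sequence at different concentrations or buffers and across linkers. Negative Z-scores can be read as non-binding.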
# [2] = target: Fuc(a1-3)[Gal3S(b1-4)]GlcNAc6S
# How it was run: as §1
# [3] = target: Fuc(a1-3)[GalNAc(b1-4)]GlcNAc
# How it was run: as §1
# [4] = target: Fuc(a1-3)[GalNAc(b1-4)]GlcNAc6S
# How it was run: as §1
# Fuc(a1-4)GlcNAc = target: Fuc(a1-4)GlcNAc
# How it was run: as §1
# Fuc(b1-3)GlcNAc = target: Fuc(b1-3)GlcNAc
# How it was run: as §1
# Gal(a1-2)Gal = target: Gal(a1-2)Gal
# How it was run: as §1
# Gal(a1-3)Gal = target: Gal(a1-3)Gal
# How it was run: as §1
# Gal(a1-3)Gal(b1-3)GlcNAc = target: Gal(a1-3)Gal(b1-3)GlcNAc
# How it was run: as §1
# [5] = target: Gal(a1-3)Gal(b1-3)GlcNAc(b1-2)Man
# How it was run: as §1
# [6] = target: Gal(a1-3)Gal(b1-3)GlcNAc(b1-2)Man(a1-3)[Gal(a1-3)Gal(b1-3)GlcNAc(b1-2)Man(a1-6)]Man(b1-4)GlcNAc(b1-4)GlcNAc
# How it was run: as §1
# [7] = target: Gal(a1-3)Gal(b1-3)GlcNAc(b1-3)GalNAc
# How it was run: as §1
# [8] = target: Gal(a1-3)Gal(b1-3)GlcNAc(b1-6)GalNAc
# How it was run: as §1
# [9] = target: Gal(a1-3)Gal(b1-3)[Fuc(a1-4)]GlcNAc(b1-2)Man(a1-3)[Gal(a1-3)Gal(b1-3)[Fuc(a1-4)]GlcNAc(b1-2)Man(a1-6)]Man(b1-4)GlcNAc(b1-4)GlcNAc
# How it was run: as §1
# Gal(a1-3)Gal(b1-4)Glc = target: Gal(a1-3)Gal(b1-4)Glc
# How it was run: as §1
# Gal(a1-3)Gal(b1-4)GlcNAc = target: Gal(a1-3)Gal(b1-4)GlcNAc
# How it was run: as §1
# [10] = target: Gal(a1-3)Gal(b1-4)GlcNAc(b1-2)Man
# How it was run: as §1
# [11] = target: Gal(a1-3)Gal(b1-4)GlcNAc(b1-2)Man(a1-3)[Gal(a1-3)Gal(b1-4)GlcNAc(b1-2)Man(a1-6)]Man(b1-4)GlcNAc(b1-4)GlcNAc
# How it was run: as §1
# [12] = target: Gal(a1-3)Gal(b1-4)GlcNAc(b1-3)GalNAc
# How it was run: as §1
# [13] = target: Gal(a1-3)Gal(b1-4)GlcNAc(b1-6)GalNAc
# How it was run: as §1
# [14] = target: Gal(a1-3)Gal(b1-4)[Fuc(a1-3)]GlcNAc
# How it was run: as §1
# [15] = target: Gal(a1-3)Gal(b1-4)[Fuc(a1-3)]GlcNAc(b1-2)Man(a1-3)[Gal(a1-3)Gal(b1-4)[Fuc(a1-3)]GlcNAc(b1-2)Man(a1-6)]Man(b1-4)GlcNAc(b1-4)GlcNAc
# How it was run: as §1
# Gal(a1-3)GalNAc = target: Gal(a1-3)GalNAc
# How it was run: as §1
# [16] = target: Gal(a1-3)[Gal(a1-4)]Gal(b1-4)GlcNAc
# How it was run: as §1
# [17] = target: Gal(a1-4)Gal(b1-3)GlcNAc(b1-2)Man(a1-3)[Gal(a1-4)Gal(b1-3)GlcNAc(b1-2)Man(a1-6)]Man(b1-4)GlcNAc(b1-4)GlcNAc
# How it was run: as §1
# Gal(a1-4)Gal(b1-4)Glc = target: Gal(a1-4)Gal(b1-4)Glc
# How it was run: as §1
# Gal(a1-4)Gal(b1-4)GlcNAc = target: Gal(a1-4)Gal(b1-4)GlcNAc
# How it was run: as §1
# [18] = target: Gal(a1-4)Gal(b1-4)GlcNAc(b1-2)Man(a1-3)[Gal(a1-4)Gal(b1-4)GlcNAc(b1-2)Man(a1-6)]Man(b1-4)GlcNAc(b1-4)GlcNAc
# How it was run: as §1
# [19] = target: Gal(a1-4)Gal(b1-4)GlcNAc(b1-3)Gal(b1-4)Glc
# How it was run: as §1
# Gal(a1-4)GlcNAc = target: Gal(a1-4)GlcNAc
# How it was run: as §1
# Gal(a1-6)Glc = target: Gal(a1-6)Glc
# How it was run: as §1
# Gal(b1-2)Gal = target: Gal(b1-2)Gal
# How it was run: as §1
# Gal(b1-3)Gal = target: Gal(b1-3)Gal
# How it was run: as §1
# Gal(b1-3)Gal(b1-4)GlcNAc = target: Gal(b1-3)Gal(b1-4)GlcNAc
# How it was run: as §1
# Gal(b1-3)GalNAc = target: Gal(b1-3)GalNAc
# How it was run: as §1
# [20] = target: Gal(b1-3)GalNAc(a1-3)[Fuc(a1-2)]Gal(b1-4)Glc
# How it was run: as §1
# [21] = target: Gal(b1-3)GalNAc(a1-3)[Fuc(a1-2)]Gal(b1-4)GlcNAc
# How it was run: as §1
# Gal(b1-3)GalNAc(b1-3)Gal = target: Gal(b1-3)GalNAc(b1-3)Gal
# How it was run: as §1
# [22] = target: Gal(b1-3)GalNAc(b1-3)Gal(a1-4)Gal(b1-4)Glc
# How it was run: as §1
# [23] = target: Gal(b1-3)GalNAc(b1-4)Gal(b1-4)Glc
# How it was run: as §1
# [24] = target: Gal(b1-3)GalNAc(b1-4)[Neu5Ac(a2-3)]Gal(b1-4)Glc
# How it was run: as §1
# Gal(b1-3)GlcNAc = target: Gal(b1-3)GlcNAc
# How it was run: as §1
# [25] = target: Gal(b1-3)GlcNAc(a1-3)Gal(b1-4)GlcNAc
# How it was run: as §1
# [26] = target: Gal(b1-3)GlcNAc(a1-6)Gal(b1-4)GlcNAc
# How it was run: as §1
# Gal(b1-3)GlcNAc(b1-2)Man = target: Gal(b1-3)GlcNAc(b1-2)Man
# How it was run: as §1
binder,measurement,setting,value
B1,glycan array binding signal (z-score),[1],-0.521
same,glycan array binding signal (z-score),[2],-0.518
same,glycan array binding signal (z-score),[3],-0.529
same,glycan array binding signal (z-score),[4],-0.542
same,glycan array binding signal (z-score),Fuc(a1-4)GlcNAc,-0.474
same,glycan array binding signal (z-score),Fuc(b1-3)GlcNAc,-0.5
same,glycan array binding signal (z-score),Gal(a1-2)Gal,-0.537
same,glycan array binding signal (z-score),Gal(a1-3)Gal,-0.521
same,glycan array binding signal (z-score),Gal(a1-3)Gal(b1-3)GlcNAc,-0.09
same,glycan array binding signal (z-score),[5],0.264
same,glycan array binding signal (z-score),[6],-0.276
same,glycan array binding signal (z-score),[7],0.221
same,glycan array binding signal (z-score),[8],0.273
same,glycan array binding signal (z-score),[9],-0.204
same,glycan array binding signal (z-score),Gal(a1-3)Gal(b1-4)Glc,0.2
same,glycan array binding signal (z-score),Gal(a1-3)Gal(b1-4)GlcNAc,0.325
same,glycan array binding signal (z-score),[10],0.378
same,glycan array binding signal (z-score),[11],2.1
same,glycan array binding signal (z-score),[12],0.166
same,glycan array binding signal (z-score),[13],0.271
same,glycan array binding signal (z-score),[14],-0.546
same,glycan array binding signal (z-score),[15],-0.406
same,glycan array binding signal (z-score),Gal(a1-3)GalNAc,-0.533
same,glycan array binding signal (z-score),[16],-0.533
same,glycan array binding signal (z-score),[17],-0.534
same,glycan array binding signal (z-score),Gal(a1-4)Gal(b1-4)Glc,-0.504
same,glycan array binding signal (z-score),Gal(a1-4)Gal(b1-4)GlcNAc,-0.457
same,glycan array binding signal (z-score),[18],-0.532
same,glycan array binding signal (z-score),[19],0.175
same,glycan array binding signal (z-score),Gal(a1-4)GlcNAc,-0.536
same,glycan array binding signal (z-score),Gal(a1-6)Glc,-0.531
same,glycan array binding signal (z-score),Gal(b1-2)Gal,-0.521
same,glycan array binding signal (z-score),Gal(b1-3)Gal,-0.231
same,glycan array binding signal (z-score),Gal(b1-3)Gal(b1-4)GlcNAc,0.252
same,glycan array binding signal (z-score),Gal(b1-3)GalNAc,-0.248
same,glycan array binding signal (z-score),[20],0.954
same,glycan array binding signal (z-score),[21],2.62
same,glycan array binding signal (z-score),Gal(b1-3)GalNAc(b1-3)Gal,0.494
same,glycan array binding signal (z-score),[22],0.125
same,glycan array binding signal (z-score),[23],0.461
same,glycan array binding signal (z-score),[24],0.288
same,glycan array binding signal (z-score),Gal(b1-3)GlcNAc,-0.182
same,glycan array binding signal (z-score),[25],0.264
same,glycan array binding signal (z-score),[26],-0.17
same,glycan array binding signal (z-score),Gal(b1-3)GlcNAc(b1-2)Man,-0.065

# Reference: the supplement of paper PMC8728848
